Experimental data published in article PMC4336329 (PLoS ONE, 2015).
Among all 310,000 compounds or so, about 2,200 (0.71%) showed an effect of 50% or more. The effect is printed as a negative number. Some of the results follow.

Biological target: human ether-à-go-go-related gene (hERG) potassium channel (human, UniProt Q12809)
Assay: primary screen, population patch clamp on CHO cells stably expressing hERG

human ether-à-go-go-related gene (hERG) potassium channel, sequence (Q12809 whole entry, looked up): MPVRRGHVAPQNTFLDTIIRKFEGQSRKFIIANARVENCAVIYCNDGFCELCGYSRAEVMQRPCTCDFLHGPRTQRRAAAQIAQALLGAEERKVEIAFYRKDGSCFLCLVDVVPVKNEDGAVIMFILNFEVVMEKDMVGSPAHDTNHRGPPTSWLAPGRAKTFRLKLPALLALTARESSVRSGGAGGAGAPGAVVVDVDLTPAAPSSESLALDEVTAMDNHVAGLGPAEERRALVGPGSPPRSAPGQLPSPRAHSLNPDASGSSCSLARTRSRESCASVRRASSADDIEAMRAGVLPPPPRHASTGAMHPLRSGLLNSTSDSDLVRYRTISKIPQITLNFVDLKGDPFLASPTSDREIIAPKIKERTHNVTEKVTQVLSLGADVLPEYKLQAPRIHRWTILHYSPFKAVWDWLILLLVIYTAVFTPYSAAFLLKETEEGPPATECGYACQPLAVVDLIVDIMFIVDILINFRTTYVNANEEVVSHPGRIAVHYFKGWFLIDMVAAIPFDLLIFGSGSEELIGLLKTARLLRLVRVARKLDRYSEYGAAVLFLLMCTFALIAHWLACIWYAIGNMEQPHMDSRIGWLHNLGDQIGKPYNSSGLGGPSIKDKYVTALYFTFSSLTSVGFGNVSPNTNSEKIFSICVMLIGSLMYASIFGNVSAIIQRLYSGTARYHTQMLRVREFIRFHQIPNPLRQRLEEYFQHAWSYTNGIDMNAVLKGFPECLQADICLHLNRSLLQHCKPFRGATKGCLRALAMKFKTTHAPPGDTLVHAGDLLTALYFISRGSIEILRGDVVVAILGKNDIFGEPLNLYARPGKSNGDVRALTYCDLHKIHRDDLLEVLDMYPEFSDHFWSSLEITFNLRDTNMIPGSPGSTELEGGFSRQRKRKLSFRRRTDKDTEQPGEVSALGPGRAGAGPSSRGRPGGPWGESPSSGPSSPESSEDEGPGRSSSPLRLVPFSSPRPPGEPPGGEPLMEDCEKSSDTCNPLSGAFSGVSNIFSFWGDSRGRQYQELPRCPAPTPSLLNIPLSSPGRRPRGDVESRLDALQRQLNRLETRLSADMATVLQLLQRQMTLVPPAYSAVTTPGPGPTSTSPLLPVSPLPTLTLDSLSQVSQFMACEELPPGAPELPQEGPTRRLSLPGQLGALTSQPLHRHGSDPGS

Going from `COc1cc(C2N(C)CCC3(OCCO3)C2(C)C)cc(OC)c1OC` (centres unmarked) to `COc1cccc(NC(=S)NC(C)c2ccc(OC)c(OC)c2)c1` (centres unmarked), the “hERG current change (%, negative = inhibition) at 1uM” value rises from 3.22% to 8.49%.

Compared with `COc1cc(OC)cc(C(=O)Nc2cccc(C(C)=O)c2)c1`, `CCN(CC)S(=O)(=O)c1ccc(NC(=O)[C@@H](NC(=O)c2cc(OC)cc(OC)c2)C(C)C)cc1` is higher in “hERG current change (%, negative = inhibition) at 1uM” value: 3.63% for the first, 11.2% for the second.

Going from `CN(C)c1cccc(C(=O)N2CCCC(CCC(=O)N3CCN(c4ccccn4)CC3)C2)c1` (centres unmarked) to `Cc1cc(C(=O)N2CCCC(N3CCN(c4ccc(F)cc4)CC3)C2)no1` (centres unmarked), the “hERG current change (%, negative = inhibition) at 1uM” value falls from -2.48% to -19.1%.

Compared with `COc1ccc(-c2cc(C(=O)OCC(=O)N(C)C3CCS(=O)(=O)C3)c3ccccc3n2)cc1OC` (centres unmarked), `CN(C(=O)CCc1nc2ccccc2c(=O)[nH]1)C1CCS(=O)(=O)C1` (centres unmarked) is higher in “hERG current change (%, negative = inhibition) at 1uM” value: 8.43% for the first, 9.63% for the second.

Going from `O=C(COc1ccccc1)NCCn1ccc2ccccc21` to `COc1cccc(CNC(=O)c2ccc(COc3ccccc3)cc2)c1`, the “hERG current change (%, negative = inhibition) at 1uM” value rises from 6.94% to 26.2%.

Going from `CCCCc1ccc(NC(=O)CC(C)(C)C)cc1` to `CCCOc1cccc(C(=O)Nc2ccc(CN3CCOCC3)cc2)c1`, the “hERG current change (%, negative = inhibition) at 1uM” value rises from 4.54% to 7.88%.

Compared with `Cc1cc2cc3c(cc2nc1SCc1ccc(C(=O)O)cc1)OCCO3`, `O=C(CCc1nc2ccccc2[nH]1)Nc1ccc2c(c1)OCCO2` is higher in “hERG current change (%, negative = inhibition) at 1uM” value: 4.07% for the first, 11.6% for the second.

First: C/[N+]([O-])=C\C1C(=O)CCCC1=O
Second: O=C1CC(NCCC2=CCCCC2)C(=O)N1c1cccc(Cl)c1Cl (centres unmarked)
The “hERG current change (%, negative = inhibition) at 1uM” value of the first is lower: 8.32% for the first, 9.34% for the second.

Going from `O=[N+]([O-])c1cccn2cc(-c3ccc(Br)cc3)nc12` to `COc1ccc(-c2onc3ccc(Cl)cc23)cc1`, the “hERG current change (%, negative = inhibition) at 1uM” value rises from -8.95% to 16.6%.

First: CCn1c(O)c(C=Nc2ccccc2)oc1=S
Second: C=CCn1c(=S)[nH]c2cc(-c3ccccc3)sc2c1=O
The “hERG current change (%, negative = inhibition) at 1uM” value of the first is lower: 7.04% for the first, 19.1% for the second.

Going from `Cc1cc(OC(C)C)nc(NCc2ccccc2)n1` to `Cc1onc(-c2ccccc2)c1-c1ccnn1C(=O)NC(C)C`, the “hERG current change (%, negative = inhibition) at 1uM” value rises from 2.79% to 6.54%.

First: O=C(CCl)N1c2ccccc2SCC1c1ccccc1 (centres unmarked)
Second: O=C(Cn1nnc(-c2ccccc2)n1)NCc1ccccc1
The “hERG current change (%, negative = inhibition) at 1uM” value of the first is higher: 23.2% for the first, -3.18% for the second.

Compared with `COc1ccc(-c2nn(-c3ccccc3)cc2/C=N/N2C(=O)CSC2=S)cc1`, `COc1ccc(C2c3ccc4ccccc4c3Oc3ncn(CCN(C)C)c(=N)c32)cc1` (centres unmarked) is lower in “hERG current change (%, negative = inhibition) at 1uM” value: 3.55% for the first, -40.1% for the second.

First: Cc1cccc(-c2nc3c(c(SCC(=O)N4CCOCC4)n2)CCCC3)c1
Second: NC(=O)c1c(NC(=O)c2ccc(S(=O)(=O)N3CCOCC3)cc2)sc2c1CCCCC2
The “hERG current change (%, negative = inhibition) at 1uM” value of the first is higher: 11.2% for the first, -0.279% for the second.

First: O=C(O)C(=O)O.OC(COCc1ccco1)CN1CCN(c2ccccc2)CC1 (centres unmarked)
Second: O=C(c1ccco1)N1CCN(c2cccc(Cl)c2)CC1
The “hERG current change (%, negative = inhibition) at 1uM” value of the first is lower: 3.71% for the first, 9.98% for the second.

Compared with `CC(=O)NC1=NN(C(C)=O)C(C)(c2ccc(Br)cc2)S1` (centres unmarked), `Cc1cccc(NC(=O)c2cccs2)n1` is higher in “hERG current change (%, negative = inhibition) at 1uM” value: 2.91% for the first, 12.1% for the second.

First: CC1(C)CC(=O)c2cc(O)ccc2O1
Second: CNC(=O)Oc1ccc2c(c1)[C@]1(C)CCN(C)[C@@H]1N2C
The “hERG current change (%, negative = inhibition) at 1uM” value of the first is lower: -0.296% for the first, 6.99% for the second.

First: COC(=O)C1=C(c2cccc(C#N)c2)C[C@@H]2CC[C@H]1N2C(=O)N1CCCCC1
Second: Cc1ccc(NC(=S)N2CCCC2)cc1
The “hERG current change (%, negative = inhibition) at 1uM” value of the first is lower: 1.15% for the first, 5.92% for the second.

Compared with `CCN(CC(=O)Nc1ccc(NC(C)=O)cc1)C(=O)c1cccc(Oc2ccccc2)c1`, `CC(=O)Nc1ccc(NC(=O)CSc2nnc3c4ccccc4n(C)c3n2)cc1` is lower in “hERG current change (%, negative = inhibition) at 1uM” value: 15.9% for the first, 5.74% for the second.

Going from `O=C(CCC(=O)N(CC(=O)NC1CCCC1)Cc1cccs1)Nc1nccs1` to `CC(C)(C)c1ccc(OCC(=O)Nc2cccc(S(=O)(=O)NC3=NCCCCC3)c2)cc1`, the “hERG current change (%, negative = inhibition) at 1uM” value falls from 4.31% to 3.94%.

Compared with `O=S(=O)(c1ccccc1)N(CC(O)COc1ccccc1)c1ccccc1` (centres unmarked), `N#Cc1c(NC(=O)CN2C(=O)c3ccccc3C2=O)oc(-c2ccccc2)c1-c1ccccc1` is lower in “hERG current change (%, negative = inhibition) at 1uM” value: 7.47% for the first, -9.29% for the second.

Going from `COc1ccc(-c2c(NC(=O)CC(C)C)n(C)c3ccccc3c2=O)cc1OC` to `COc1ccc([N+](=O)[O-])cc1NC(=O)CSc1ccccc1`, the “hERG current change (%, negative = inhibition) at 1uM” value falls from 22.8% to 0.785%.

Compared with `O=C(CSc1nnc(CNc2ccc(F)cc2)o1)c1ccccc1`, `O=C(CSc1n[nH]c(-c2ccccc2)n1)Nc1ccc(F)cc1F` is higher in “hERG current change (%, negative = inhibition) at 1uM” value: 3.89% for the first, 8.89% for the second.

Going from `CCN(CC)CCSc1nnc2c3ccccc3n(Cc3ccccc3)c2n1` to `CCN(CC)C(=O)CSc1nc2c(sc(=S)n2-c2ccccc2)c(=O)[nH]1`, the “hERG current change (%, negative = inhibition) at 1uM” value rises from -73.4% to 0.377%.

Compared with `Cc1onc(-c2c(Cl)cccc2Cl)c1C(=O)N=C(N)N1CCOCC1`, `Cc1sc2nc(CSC(C)C(=O)N3CCOCC3)[nH]c(=O)c2c1C` (centres unmarked) is higher in “hERG current change (%, negative = inhibition) at 1uM” value: 14.1% for the first, 21.4% for the second.

Compared with `O=C(c1cccc([N+](=O)[O-])c1)N1CCN(C/C=C/c2ccccc2)CC1`, `N#CCC(=O)N/N=C\c1ccc(OC/C=C/c2ccccc2)cc1` is higher in “hERG current change (%, negative = inhibition) at 1uM” value: -21% for the first, 12.3% for the second.

Going from `CCCc1ccc(OCc2ccc(C(=O)N/N=C/c3cccc([N+](=O)[O-])c3)o2)c(OC)c1` to `COc1ccc(C(=O)NCC(=O)N/N=C/c2cccnc2)cc1`, the “hERG current change (%, negative = inhibition) at 1uM” value rises from 10.1% to 12.8%.

First: COc1ccc(N(C(C)=O)S(=O)(=O)c2cc(OC)ccc2OC)cc1
Second: COc1ccc(OC)c(S(=O)(=O)NC(C)c2cnn(-c3ccccn3)c2C)c1 (centres unmarked)
The “hERG current change (%, negative = inhibition) at 1uM” value of the first is lower: 1.18% for the first, 3.76% for the second.

Going from `CC(=O)C1=C(C)Nc2ncnn2C1c1ccccc1Cl` (centres unmarked) to `CC(=O)Nc1ccc(Nc2nc(C)nc3c2oc2ccccc23)cc1`, the “hERG current change (%, negative = inhibition) at 1uM” value rises from 6.69% to 12.8%.

Going from `COc1ccc(/C=N/Nc2cc(C)nc(N)n2)cc1` to `COc1ccc(OC)c(/C=C(\C)C(=O)c2c(C)cc(C)[nH]c2=O)c1`, the “hERG current change (%, negative = inhibition) at 1uM” value rises from -7.98% to 10.8%.

Going from `C/C=C/C=C/C(=O)N1CC2(CC(c3cccc(NC(=O)/C=C/C)c3)=NO2)C[C@@H]1C(N)=O` (some centres unmarked) to `CCCn1c(N)c(N(CCOC)C(=O)CSCC(=O)Nc2cccc(C)c2)c(=O)[nH]c1=O`, the “hERG current change (%, negative = inhibition) at 1uM” value falls from 10.7% to 10.2%.

Going from `CS(=O)(=O)Nc1ccc(C(=O)Nc2ccc3c(c2)OCCO3)cc1` to `CCN(CC)S(=O)(=O)c1ccc(C(=O)NCCOC(=O)c2ccc(F)cc2F)cc1`, the “hERG current change (%, negative = inhibition) at 1uM” value rises from 6.07% to 16.2%.

Going from `CCOC(=O)c1ccc(S(=O)(=O)N2CCN(CC3CC=CCC3)CC2)cc1.O=C(O)C(=O)O` (centres unmarked) to `CCCS(=O)(=O)C/C(N)=N/OC(=O)c1ccc(Cl)cc1`, the “hERG current change (%, negative = inhibition) at 1uM” value falls from 8.07% to 4.94%.

First: CCOc1ccc2c(c1)[N+](C)(C)C(C)(C)C=C2C.[I-]
Second: CCOc1ccc(Br)cc1S(=O)(=O)N1CC(C)OC(C)C1 (centres unmarked)
The “hERG current change (%, negative = inhibition) at 1uM” value of the first is higher: 13.9% for the first, -3.3% for the second.

Going from `Cc1cccc(C(=O)n2c(=S)nc3cc(C)ccn32)c1` to `Cc1ccc(/C(N)=N/OC(=O)CSc2ccccc2)cc1`, the “hERG current change (%, negative = inhibition) at 1uM” value falls from 17.2% to 7.03%.

First: Oc1ccccc1/C=N/NC(=S)NC1CC2C=CC1C2 (centres unmarked)
Second: COC(=O)CSc1ccccc1C(=O)OC
The “hERG current change (%, negative = inhibition) at 1uM” value of the first is higher: 8.03% for the first, 7.13% for the second.

First: CC1(C)C2CC[C@]3(C)C(CC=C4[C@@H]5C[C@@](C)(CO)[C@@H](O)C[C@]56C[C@@H](OC6=O)[C@]43C)[C@@]2(C)CC[C@@H]1O (some centres unmarked)
Second: C[C@@]12CC[C@H]3OC(=O)C=C3C1CC[C@@]13CC(CCC12)[C@](CO)(O[C@H]1O[C@H](CO)[C@@H](O)[C@H](O)[C@H]1O)C3 (some centres unmarked)
The “hERG current change (%, negative = inhibition) at 1uM” value of the first is lower: 14.1% for the first, 16.5% for the second.

Going from `Cc1ccc(OCC(=O)Nc2ccccc2-c2ccccc2NC(=O)COc2ccc(C)cc2)cc1` to `CCOc1ccc(NC(=O)CN2CCN(CC(=O)Nc3ccccc3OC)CC2)cc1`, the “hERG current change (%, negative = inhibition) at 1uM” value falls from 4.56% to -30.9%.

First: O=C(Cn1c(/C=C/c2ccccc2)nc2ccccc21)Nc1ccc(F)cc1
Second: CN(C)c1ccc(NC(=O)CN2C(=O)CN=C(c3ccccc3)c3ccccc32)cc1
The “hERG current change (%, negative = inhibition) at 1uM” value of the first is lower: 6.84% for the first, 10% for the second.

First: Cc1ccc2c(c1)N(S(=O)(=O)c1ccc(CN3C(=O)c4cccnc4C3=O)s1)CCO2
Second: COc1ccc(/C=C2/C(=O)NC(=S)N(C3CC3)C2=O)cc1CN1C(=O)c2ccccc2C1=O
The “hERG current change (%, negative = inhibition) at 1uM” value of the first is lower: 5.88% for the first, 7.52% for the second.

Compared with `CCCOC(=O)C(C)Sc1n[nH]c(=O)[nH]c1=O` (centres unmarked), `NS(=O)(=O)c1ccc(CCNC(=O)c2ccc(Cn3c(=O)[nH]c4ccccc4c3=O)cc2)cc1` is lower in “hERG current change (%, negative = inhibition) at 1uM” value: 0.807% for the first, -0.42% for the second.

First: S=c1[nH]nc(-c2ccco2)n1/N=C/C=C/c1ccccc1
Second: O=C(NC(Cc1ccccc1)C(=O)NCc1ccccn1)c1ccco1 (centres unmarked)
The “hERG current change (%, negative = inhibition) at 1uM” value of the first is lower: 3.22% for the first, 5.81% for the second.

Going from `COc1ccccc1-c1c(C)nn2c(N3CCN(c4ccccc4OC)CC3)cc(C)nc12` to `CCOc1ccc(CN2CCN(Cc3[nH]c4ccccc4c3C)CC2CCO)cc1` (centres unmarked), the “hERG current change (%, negative = inhibition) at 1uM” value falls from 7.23% to -75.2%.
